Experimental data published in the supplement of paper PMC7125110.
This sample is rich in variants without activity.

B1: glmS ribozyme (parent)
chain: AUAAAAGCGCCAGAACUACAGAAAUGUAGUUGACGAGGAGGAGGUUUAUCGAAUUUUCGGCGGAUGCCUCCAAA

Key:
Details in all cases: with glucosamine-6-phosphate
[1] = variants of: B1; test: kcat; higher = faster cleavage; RNA array
Method in brief: (§1)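 Sequenced MiSeq chips were the platform: E. coli RNA polymerase transcribed barcoded ribozyme variants on them in situ, and a hybridised Cy3 probe tracked these at 37 °C. After glucosamine-6-phosphate (40 μM to 10 mM) in HEPES/KCl/Mg(OAc)2 buffer was flowed in, tiles were imaged over ~14 h. Signals normalised to baseline and to non-cleaving reference variants were reduced to per-tile medians and fit to one- or two-exponential decays to obtain kobs. kcat and KM were derived through weighted Michaelis–Menten fits across concentrations.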

[2] = variants of: B1; test: self-cleavage kobs at 40 uM GlcN6P; higher = faster cleavage; RNA array
Method in brief: as §1

[3] = variants of: B1; test: self-cleavage kobs at 640 uM GlcN6P; higher = faster cleavage; RNA array
Method in brief: as §1

[4] = variants of: B1; test: self-cleavage kobs at 160 uM GlcN6P; higher = faster cleavage; RNA array
Method in brief: as §1

[5] = variants of: B1; test: self-cleavage kobs at 2500 uM GlcN6P; higher = faster cleavage; RNA array
Method in brief: as §1

[6] = variants of: B1; test: self-cleavage kobs at 10000 uM GlcN6P; higher = faster cleavage; RNA array
Method in brief: as §1

## G40U G51U
[1]
  kcat: < 1e-05 s⁻¹
[2]
  self-cleavage kobs at 40 uM GlcN6P: < 1e-05 s⁻¹

## G41A G63C
[1]
  kcat: < 1e-05 s⁻¹
[2]
  self-cleavage kobs at 40 uM GlcN6P: < 1e-05 s⁻¹
[3]
  self-cleavage kobs at 640 uM GlcN6P: < 1e-05 s⁻¹
[4]
  self-cleavage kobs at 160 uM GlcN6P: < 1e-05 s⁻¹
[5]
  self-cleavage kobs at 2500 uM GlcN6P: < 1e-05 s⁻¹

## G41A U57A
[1]
  kcat: < 1e-05 s⁻¹
[2]
  self-cleavage kobs at 40 uM GlcN6P: < 1e-05 s⁻¹
[3]
  self-cleavage kobs at 640 uM GlcN6P: < 1e-05 s⁻¹

## G41C G51U
[1]
  kcat: < 1e-05 s⁻¹
[3]
  self-cleavage kobs at 640 uM GlcN6P: < 1e-05 s⁻¹

## A42C G62A
[1]
  kcat: < 1e-05 s⁻¹
[3]
  self-cleavage kobs at 640 uM GlcN6P: < 1e-05 s⁻¹
[4]
  self-cleavage kobs at 160 uM GlcN6P: < 1e-05 s⁻¹
[6]
  self-cleavage kobs at 10000 uM GlcN6P: < 1e-05 s⁻¹

## A42C U56G
[1]
  kcat: < 1e-05 s⁻¹
[2]
  self-cleavage kobs at 40 uM GlcN6P: < 1e-05 s⁻¹
[3]
  self-cleavage kobs at 640 uM GlcN6P: < 1e-05 s⁻¹
[4]
  self-cleavage kobs at 160 uM GlcN6P: < 1e-05 s⁻¹

## A42C U57C
[1]
  kcat: < 1e-05 s⁻¹
[2]
  self-cleavage kobs at 40 uM GlcN6P: < 1e-05 s⁻¹
[3]
  self-cleavage kobs at 640 uM GlcN6P: < 1e-05 s⁻¹
[6]
  self-cleavage kobs at 10000 uM GlcN6P: < 1e-05 s⁻¹

## A42U G59A
[1]
  kcat: < 1e-05 s⁻¹
[2]
  self-cleavage kobs at 40 uM GlcN6P: < 1e-05 s⁻¹
[3]
  self-cleavage kobs at 640 uM GlcN6P: < 1e-05 s⁻¹
[5]
  self-cleavage kobs at 2500 uM GlcN6P: < 1e-05 s⁻¹

## G43A A52G
[1]
  kcat: < 1e-05 s⁻¹
[4]
  self-cleavage kobs at 160 uM GlcN6P: < 1e-05 s⁻¹

## G44C C50A
[1]
  kcat: < 1e-05 s⁻¹
[2]
  self-cleavage kobs at 40 uM GlcN6P: < 1e-05 s⁻¹
[3]
  self-cleavage kobs at 640 uM GlcN6P: < 1e-05 s⁻¹
[5]
  self-cleavage kobs at 2500 uM GlcN6P: < 1e-05 s⁻¹

## G44C G51C
[1]
  kcat: < 1e-05 s⁻¹
[2]
  self-cleavage kobs at 40 uM GlcN6P: < 1e-05 s⁻¹
[6]
  self-cleavage kobs at 10000 uM GlcN6P: < 1e-05 s⁻¹

## U46C C50A
[1]
  kcat: < 1e-05 s⁻¹
[2]
  self-cleavage kobs at 40 uM GlcN6P: < 1e-05 s⁻¹
[3]
  self-cleavage kobs at 640 uM GlcN6P: < 1e-05 s⁻¹
[4]
  self-cleavage kobs at 160 uM GlcN6P: < 1e-05 s⁻¹

## U47A C61A
[1]
  kcat: < 1e-05 s⁻¹

## A48C C70G
[1]
  kcat: < 1e-05 s⁻¹
[2]
  self-cleavage kobs at 40 uM GlcN6P: < 1e-05 s⁻¹
[4]
  self-cleavage kobs at 160 uM GlcN6P: < 1e-05 s⁻¹

## A48G C50U
[1]
  kcat: < 1e-05 s⁻¹
[2]
  self-cleavage kobs at 40 uM GlcN6P: < 1e-05 s⁻¹
[3]
  self-cleavage kobs at 640 uM GlcN6P: < 1e-05 s⁻¹

## A48G G51A
[1]
  kcat: < 1e-05 s⁻¹
[2]
  self-cleavage kobs at 40 uM GlcN6P: < 1e-05 s⁻¹
[6]
  self-cleavage kobs at 10000 uM GlcN6P: < 1e-05 s⁻¹

## A48U C68G
[1]
  kcat: < 1e-05 s⁻¹

## U49A C67G
[1]
  kcat: < 1e-05 s⁻¹

## U49A U56A
[1]
  kcat: < 1e-05 s⁻¹
[3]
  self-cleavage kobs at 640 uM GlcN6P: < 1e-05 s⁻¹

## U49G C68A
[1]
  kcat: < 1e-05 s⁻¹
[2]
  self-cleavage kobs at 40 uM GlcN6P: < 1e-05 s⁻¹

## C50A G60A
[1]
  kcat: < 1e-05 s⁻¹

## C50A G60U
[1]
  kcat: < 1e-05 s⁻¹
[3]
  self-cleavage kobs at 640 uM GlcN6P: < 1e-05 s⁻¹

## C50A G66U
[1]
  kcat: < 1e-05 s⁻¹

## G51A A52G
[1]
  kcat: < 1e-05 s⁻¹
[2]
  self-cleavage kobs at 40 uM GlcN6P: < 1e-05 s⁻¹

## G51A G60A
[1]
  kcat: < 1e-05 s⁻¹
[3]
  self-cleavage kobs at 640 uM GlcN6P: < 1e-05 s⁻¹
[6]
  self-cleavage kobs at 10000 uM GlcN6P: < 1e-05 s⁻¹

## G51C C68U
[1]
  kcat: < 1e-05 s⁻¹
[4]
  self-cleavage kobs at 160 uM GlcN6P: < 1e-05 s⁻¹

## G51C G59C
[1]
  kcat: < 1e-05 s⁻¹
[3]
  self-cleavage kobs at 640 uM GlcN6P: < 1e-05 s⁻¹

## G51U
[1]
  kcat: < 1e-05 s⁻¹
[2]
  self-cleavage kobs at 40 uM GlcN6P: < 1e-05 s⁻¹

## G51U C70U
[1]
  kcat: < 1e-05 s⁻¹

## G51U G63A
[1]
  kcat: < 1e-05 s⁻¹
[3]
  self-cleavage kobs at 640 uM GlcN6P: < 1e-05 s⁻¹
[6]
  self-cleavage kobs at 10000 uM GlcN6P: < 1e-05 s⁻¹

## G51U U54G
[1]
  kcat: < 1e-05 s⁻¹
[2]
  self-cleavage kobs at 40 uM GlcN6P: < 1e-05 s⁻¹
[3]
  self-cleavage kobs at 640 uM GlcN6P: < 1e-05 s⁻¹
[4]
  self-cleavage kobs at 160 uM GlcN6P: < 1e-05 s⁻¹

## G51U U56G
[1]
  kcat: < 1e-05 s⁻¹
[5]
  self-cleavage kobs at 2500 uM GlcN6P: < 1e-05 s⁻¹
[6]
  self-cleavage kobs at 10000 uM GlcN6P: < 1e-05 s⁻¹

## G51U U65A
[1]
  kcat: < 1e-05 s⁻¹
[4]
  self-cleavage kobs at 160 uM GlcN6P: < 1e-05 s⁻¹

## G51U U65C
[1]
  kcat: < 1e-05 s⁻¹

## A52C U65G
[1]
  kcat: < 1e-05 s⁻¹
[2]
  self-cleavage kobs at 40 uM GlcN6P: < 1e-05 s⁻¹
[3]
  self-cleavage kobs at 640 uM GlcN6P: < 1e-05 s⁻¹
[4]
  self-cleavage kobs at 160 uM GlcN6P: < 1e-05 s⁻¹

## A52U U57C
[1]
  kcat: < 1e-05 s⁻¹
[2]
  self-cleavage kobs at 40 uM GlcN6P: < 1e-05 s⁻¹
[3]
  self-cleavage kobs at 640 uM GlcN6P: < 1e-05 s⁻¹
[4]
  self-cleavage kobs at 160 uM GlcN6P: < 1e-05 s⁻¹

## A53G C61A
[1]
  kcat: < 1e-05 s⁻¹

## U54A C61A
[1]
  kcat: < 1e-05 s⁻¹

## U54G G60C
[1]
  kcat: < 1e-05 s⁻¹

## U54G U56A G63U
[1]
  kcat: < 1e-05 s⁻¹
[4]
  self-cleavage kobs at 160 uM GlcN6P: < 1e-05 s⁻¹
[5]
  self-cleavage kobs at 2500 uM GlcN6P: < 1e-05 s⁻¹

## U55A C61A
[1]
  kcat: < 1e-05 s⁻¹
[2]
  self-cleavage kobs at 40 uM GlcN6P: < 1e-05 s⁻¹
[3]
  self-cleavage kobs at 640 uM GlcN6P: < 1e-05 s⁻¹
[6]
  self-cleavage kobs at 10000 uM GlcN6P: < 1e-05 s⁻¹

## U55G C61G
[1]
  kcat: < 1e-05 s⁻¹

## U56A G63A
[1]
  kcat: < 1e-05 s⁻¹
[2]
  self-cleavage kobs at 40 uM GlcN6P: < 1e-05 s⁻¹
[3]
  self-cleavage kobs at 640 uM GlcN6P: < 1e-05 s⁻¹
[4]
  self-cleavage kobs at 160 uM GlcN6P: < 1e-05 s⁻¹

## U57A G62U
[1]
  kcat: < 1e-05 s⁻¹
[3]
  self-cleavage kobs at 640 uM GlcN6P: < 1e-05 s⁻¹

## U57A G63C
[1]
  kcat: < 1e-05 s⁻¹
[2]
  self-cleavage kobs at 40 uM GlcN6P: < 1e-05 s⁻¹

## C58U A64U
[1]
  kcat: < 1e-05 s⁻¹
[3]
  self-cleavage kobs at 640 uM GlcN6P: < 1e-05 s⁻¹

## C58U G66U
[1]
  kcat: < 1e-05 s⁻¹

## G59A C61G
[1]
  kcat: < 1e-05 s⁻¹
[6]
  self-cleavage kobs at 10000 uM GlcN6P: < 1e-05 s⁻¹

## G59A C61U
[1]
  kcat: < 1e-05 s⁻¹
[2]
  self-cleavage kobs at 40 uM GlcN6P: < 1e-05 s⁻¹
[3]
  self-cleavage kobs at 640 uM GlcN6P: < 1e-05 s⁻¹
[6]
  self-cleavage kobs at 10000 uM GlcN6P: < 1e-05 s⁻¹

## G59A G60C
[1]
  kcat: < 1e-05 s⁻¹
[4]
  self-cleavage kobs at 160 uM GlcN6P: < 1e-05 s⁻¹
